Several values for one entry are separate records, joined by “and”; a condition that tells them apart may be missing. Identical values can stand only once. About 18,000 (5.8%) of roughly 310,000 compounds were called active. The shares of active, inactive and inconclusive entries below differ from those in the screen. Calls follow the shape of the dose curve; as a rule, active = well fitted inhibition curve with a large enough effect; inconclusive = small, poorly fitted or top-dose-only effect, or another doubt; inactive = no such curve, though single readings can be large or run the other way. Where the call is inconclusive, the potency comes from a doubtful curve fit.
Assay: Primary qHTS for delayed death inhibitors of the malarial parasite plastid, 48 hour incubation
Conditions: P. falciparum luciferase growth in erythrocytes; series mostly up to 28.7 µM; activity change, negative = inhibition: at the top concentration
How it was run: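 Firefly luciferase activity from engineered P. falciparum reports growth; inhibitors lower the luminescent signal. Cultures contained 2% hematocrit erythrocytes at 0.1% final parasitemia.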
For `Cc1ccc(NC(=O)c2ccc(Cl)c(S(=O)(=O)NCC3CCCO3)c2)c(O)c1` (configuration not stated), the Potency was inconclusive: 10.4 µM [inhibitor, partial curve].
For `CCOC(=O)C1(Cc2ccccc2)NC(c2ccccc2F)C2C(=O)N(CC)C(=O)C21` (configuration not stated), the Potency was inconclusive: 2.62 µM [inhibitor, full curve, poor fit].
In the case of `COc1ccc(C2CC(c3ccc([N+](=O)[O-])cc3)=NN2C(=O)c2ccccc2)cc1OC` (configuration not stated), the Potency is reported as inconclusive: 8.28 µM [inhibitor, partial curve].
For `O=C(CCn1nnc2ccccc21)Nc1nnc(Cc2ccccc2)s1`, the Potency was inconclusive: 13.1 µM [inhibitor, single point].
With `Nc1nonc1C(=O)N/N=C/c1ccc(Br)o1` the “activity change, negative = inhibition” value was inactive: 29.2%.
For `Nc1c(N(Cc2ccco2)C(=O)COc2ccccc2F)c(=O)[nH]c(=O)n1Cc1ccccc1`, the Potency was inconclusive: 13.1 µM [inhibitor, single point].
For `CC(CNc1ccccc1O)C(=O)O` (configuration not stated), the “activity change, negative = inhibition” value was inactive: 24.6%.
In the case of `O=C(CSc1nc2c(cnn2-c2cccc(Cl)c2)c(=O)[nH]1)NCC1CCCO1` (configuration not stated), the “activity change, negative = inhibition” value is reported as inactive: 0.549%.
In the case of `CC(C(=O)Nc1cccc([N+](=O)[O-])c1)n1nnc2ccccc21` (configuration not stated), the Potency is reported as inconclusive: 18.5 µM [inhibitor, single point].
For `CCCn1c(C(O)c2ccc(OC)cc2)nc2ccccc21` (configuration not stated), the Potency was inconclusive: 10.4 µM [inhibitor, partial curve].
In the case of `Cn1c(CCNC(=O)c2ccccc2F)nnc1SCc1nc2ccccc2c(=O)[nH]1`, the “activity change, negative = inhibition” value is reported as inactive: 7.22%.
In the case of `Cc1c(Cc2ccccc2)c(=O)oc2cc(OCC(=O)N3CCC(C(N)=O)CC3)ccc12`, the Potency is reported as inconclusive: 8.28 µM [inhibitor, partial curve, poor fit].
With `COc1ccc(Br)cc1/C=N/NC(=O)c1ccc(COc2ccc3c(c2)CCC3)o1` the Potency was inconclusive: 18.5 µM [inhibitor, single point].
With `C=CCNC(=O)c1ccc(-c2nc(-c3ccccc3)cs2)cc1` the “activity change, negative = inhibition” value was inactive: -90.8%.
With `COC(=O)c1cc(S(=O)(=O)Nc2cccc(OC)c2)cn1C` the “activity change, negative = inhibition” value was inactive: 20.8%.
In the case of `CC(=O)N1CCN(c2ccc(NCc3ccccc3)cc2)CC1`, the “activity change, negative = inhibition” value is reported as inactive: 43.5%.
With `Cc1ccc(CNC(=O)CCS(=O)(=O)c2ccc3c(c2)CC(C)N3C(=O)C2CC2)o1` (configuration not stated) the Potency was active: 10.4 µM.
In the case of `CC(=O)N1C(=O)NC(c2ccccc2)=C([N+](=O)[O-])C1c1ccccc1` (configuration not stated), the “activity change, negative = inhibition” value is reported as inactive: -14.4%.
In the case of `CCN(CC(=O)Nc1c(F)cccc1F)C(=O)c1ccc2c(c1)OCO2`, the “activity change, negative = inhibition” value is reported as inactive: 0%.
In the case of `COc1cc2ccccc2cc1C(=O)Nc1ccccc1N1CCN(S(C)(=O)=O)CC1`, the Potency is reported as inconclusive: 18.5 µM [inhibitor, single point].
With `CCOc1ccc(C(=O)CCC(=O)NCC(=O)Nc2c(C)cccc2C)cc1` the Potency was inconclusive: 10.4 µM [inhibitor, single point].
For `O=C(NCC1CCN(Cc2ccccc2Cl)CC1)Nc1cccc(Cl)c1`, the Potency was inconclusive: 13.1 µM [inhibitor, single point].
With `CC(=O)c1cccc(NC(=O)N2CCC(NC(=O)C34CC5CC(CC(C5)C3)C4)CC2)c1` the Potency was inconclusive: 18.5 µM [inhibitor, partial curve, poor fit].
For `Nc1cc(-c2ccccc2)ccc1O`, the Potency was inconclusive: 8.28 µM [inhibitor, single point] and inconclusive: 18.5 µM [inhibitor, single point].
With `O=C(NC(=S)NNC(=O)c1cccs1)c1ccco1` the Potency was inconclusive: 0.415 µM [inhibitor, full curve, poor fit].
With `Cc1ccc(S(=O)(=O)N2CCN(C(=O)n3ccnc3)CC2)cc1` the Potency was inconclusive: 10.4 µM [inhibitor, single point].
For `CCCCCC(O)c1cccc(OCc2ccc3ccccc3n2)c1` (configuration not stated), the Potency was inconclusive: 10.4 µM [inhibitor, single point].
In the case of `CCNC(=S)Nc1cc(Cl)ccc1Oc1ccccc1`, the “activity change, negative = inhibition” value is reported as inactive: -19.2%.
With `Cc1nn(C)c2nc(-c3cccs3)cc(C(F)(F)F)c12` the “activity change, negative = inhibition” value was inactive: 15.2%.
With `NS(=O)(=O)c1ccc(CNC(=S)NC2CCCC2)cc1` the “activity change, negative = inhibition” value was inactive: 3.63%.
In the case of `Cc1c(S(=O)(=O)NC(C)c2ccccc2)c(=O)n(C)c(=O)n1C` (configuration not stated), the “activity change, negative = inhibition” value is reported as inactive: -4.57%.
With `Cc1ccc(-c2nn(-c3ccccc3)c3[nH]c(=O)c(CNCc4ccccc4)cc23)cc1` the Potency was active: 1.04 µM.
With `N#CCCN(Cc1cccnc1)C(=S)NC(=O)C1CC1` the Potency was inconclusive: 4.15 µM [inhibitor, single point].
In the case of `CC1CCCC(NC(=O)c2cccs2)C1C` (configuration not stated), the Potency is reported as inconclusive: 7.38 µM [inhibitor, single point].
With `CCOC(=O)C1CCN(S(=O)(=O)c2ccc3c(c2)NC(=O)C(C)C(=O)N3)CC1` (configuration not stated) the Potency was inconclusive: 10.4 µM [inhibitor, single point].
In the case of `COc1ccc(/C(C)=N/NC(=O)CNC(=O)C2COc3ccccc3O2)c(OC)c1` (configuration not stated), the Potency is reported as inconclusive: 0.522 µM [inhibitor, partial curve, poor fit].
In the case of `COc1ccc(/C=C2\SC(=S)N(CCC(=O)N(CCO)c3ccccc3)C2=O)cc1OC`, the Potency is reported as inconclusive: 3.7 µM [inhibitor, partial curve].
With `CC(C)c1ccc(NC2CCCN(C(=O)CCn3cnnn3)C2)cc1` (configuration not stated) the “activity change, negative = inhibition” value was inactive: -2.04%.
For `CCOc1ccc(C(C)=O)cc1CN1C(=O)NC2(CCCCCC2)C1=O`, the Potency was active: 2.33 µM.
In the case of `CC1CC(C)CN(S(=O)(=O)c2ccc(C(=O)NCCCn3ccnc3)cc2)C1` (configuration not stated), the Potency is reported as inconclusive: 11.7 µM [inhibitor, partial curve, poor fit].
With `CC(=O)c1ccc(N2CCN(S(=O)(=O)c3ccc(-c4cc(C)no4)s3)CC2)cc1` the Potency was inconclusive: 0.37 µM [inhibitor, partial curve, poor fit].
For `CCOc1ccc(CCNC(=O)CCNC(=O)c2ccco2)cc1OCC`, the “activity change, negative = inhibition” value was inactive: 11%.
In the case of `C=CCc1c(C)nc(SC)nc1Nc1ccc(C)cc1`, the “activity change, negative = inhibition” value is reported as inactive: -18.8%.
For `O=C(CCCc1ccccc1)Nc1ccnn1C1CCN(Cc2ccc(Cl)cc2)CC1`, the Potency was inconclusive: 18.5 µM [inhibitor, single point].
In the case of `NC(=S)N/N=C/c1ccc(C(F)(F)F)cc1`, the “activity change, negative = inhibition” value is reported as inactive: 1.25%.
For `Cc1ccc(-c2nc3cc(Br)cnc3nc2-c2ccc(C)cc2)cc1`, the Potency was inconclusive: 11.7 µM [inhibitor, single point].
In the case of `CCC1=NN2C(=N)/C(=C\c3ccc(OCc4cc(=O)n5nc(CC)sc5n4)c(OC)c3)C(=O)N=C2S1`, the Potency is reported as inconclusive: 10.4 µM [inhibitor, single point].
In the case of `COc1cc(CN2CC(=O)N(c3ccccc3Cl)C2=S)cc(OC)c1OC`, the Potency is reported as active: 5.86 µM.
In the case of `O=C(NCC(=O)N(Cc1ccccc1)C(C(=O)NCC1CCCO1)c1ccccc1)c1cccs1` (configuration not stated), the Potency is reported as inconclusive: 10.4 µM [inhibitor, single point].
In the case of `CN1/C(=C\C(=O)COC(=O)c2ccc(O)c(O)c2)C(C)(C)c2ccccc21`, the “activity change, negative = inhibition” value is reported as inactive: -10.9%.
With `COc1ccc(CCC(=O)Nc2cc(S(=O)(=O)N3CCOCC3)ccc2OC(C)C)cc1` the Potency was inconclusive: 10.4 µM [inhibitor, single point].
In the case of `CCOc1ccc(-c2noc(CCCC(=O)NCC3CCCO3)n2)cc1OC` (configuration not stated), the Potency is reported as inconclusive: 10.4 µM [inhibitor, single point].
For `O=c1cc(Nc2ccc3c(c2)OCO3)[nH]c(=O)n1-c1ccc(Br)cc1`, the Potency was inconclusive: 0.0033 µM [inhibitor, full curve, poor fit].
With `COc1ccc2cc3cc(C(=O)NCCc4ccc(OC)c(OC)c4)oc3nc2c1` the Potency was inconclusive: 2.33 µM [inhibitor, full curve].
With `CC(C)[C@H](NC(=O)N1CC(=O)Nc2ccccc21)C(=O)N1CCC[C@H]1C(=O)O` the “activity change, negative = inhibition” value was inactive: 54.8%.
With `O=C(Cn1ccc(NC(=O)OCc2ccccc2)nc1=O)NCCCn1ccnc1` the “activity change, negative = inhibition” value was inactive: 15.4%.
For `COc1ccccc1CNC(=O)c1oc2ccccc2c1C`, the Potency was inconclusive: 14.7 µM [inhibitor, partial curve].
In the case of `COc1cc(C2Nc3cccc4cccc(c34)N2)cc(OC)c1OC(C)=O`, the “activity change, negative = inhibition” value is reported as inactive: -0.967%.
In the case of `N#CC1=C(N)N(c2ccc(F)cc2)C2=C(C1c1ccc(O)cc1)S(=O)(=O)CC2` (configuration not stated), the Potency is reported as inconclusive: 0.208 µM [inhibitor, full curve, poor fit].
For `NS(=O)(=O)c1ccc(CCNCc2ccccc2OCc2ccc(Cl)cc2)cc1`, the Potency was active: 10.4 µM.
For `Cc1c(Cl)c(=O)oc2cc(OC(C)C)ccc12`, the Potency was inconclusive: 11.7 µM [inhibitor, partial curve, poor fit].
With `CN(C)c1ncc(S(=O)(=O)c2ccc(Cl)cc2)c(-c2ccccc2)n1` the Potency was inconclusive: 8.28 µM [inhibitor, partial curve].
With `Cc1cc(C)cc(-n2ccnc2SCC(=O)Nc2nccs2)c1` the “activity change, negative = inhibition” value was inactive: 23.5%.
In the case of `CCN(C(=O)COC(=O)/C=C/c1ccc(C)o1)c1c(N)n(Cc2ccccc2)c(=O)[nH]c1=O`, the “activity change, negative = inhibition” value is reported as inactive: 8.39%.
With `C[N+](C)(C)CC/C=C1/c2ccccc2CSc2ccccc21` the Potency was active: 9.28 µM.
For `COCC(=O)Oc1c(Sc2ccccc2[N+](=O)[O-])c(C)nn1C(C)(C)C`, the Potency was inconclusive: 13.1 µM [inhibitor, partial curve, poor fit].
With `CCc1nnc(NS(=O)(=O)c2ccc(NC(=O)c3ccc(S(=O)(=O)N(CC)CC)cc3)cc2)s1` the Potency was active: 13.1 µM.
For `COc1ccc2nc(NC(=S)N(C)C)sc2c1`, the “activity change, negative = inhibition” value was inactive: -0.274%.
With `Cc1ccc(Cl)cc1N1CCN(C(=O)Cc2c(C(=O)O)[nH]c3ccc(Cl)cc23)CC1` the Potency was inconclusive: 14.7 µM [inhibitor, single point].
With `O=c1cc(CN2CCN(c3ccccc3F)CC2)c2cc(O)c(-c3ccccc3)cc2o1` the Potency was active: 2.62 µM.
In the case of `Fc1ccc(Cn2nnnc2C(c2cccs2)N2CCCCCC2)cc1` (configuration not stated), the Potency is reported as active: 13.1 µM.
In the case of `COc1ccc(C(=O)/C=C/c2ccc(N3CCCCC3)c([N+](=O)[O-])c2)c(OC)c1`, the Potency is reported as inconclusive: 18.5 µM [inhibitor, single point].

Source: PubChem BioAssay AID504832 (National Center for Advancing Translational Sciences (NCATS), 2011)
% is scaled to controls: 0 for no effect and ±100 for the full control effect; potency is read from the fitted curve at half-maximal effect; tags tell the direction and shape of the fitted curve.
